Hit rate of the full screen: of about 310,000 compounds, about 2,200 (0.71%) showed an effect of 50% or more. Effects have a minus sign here. This is one part of the list.
Molecular target: human ether-à-go-go-related gene (hERG) potassium channel (human, UniProt Q12809)
Test: primary screen, population patch clamp on CHO cells stably expressing hERG

Sequence of human ether-à-go-go-related gene (hERG) potassium channel (Q12809 whole entry, looked up): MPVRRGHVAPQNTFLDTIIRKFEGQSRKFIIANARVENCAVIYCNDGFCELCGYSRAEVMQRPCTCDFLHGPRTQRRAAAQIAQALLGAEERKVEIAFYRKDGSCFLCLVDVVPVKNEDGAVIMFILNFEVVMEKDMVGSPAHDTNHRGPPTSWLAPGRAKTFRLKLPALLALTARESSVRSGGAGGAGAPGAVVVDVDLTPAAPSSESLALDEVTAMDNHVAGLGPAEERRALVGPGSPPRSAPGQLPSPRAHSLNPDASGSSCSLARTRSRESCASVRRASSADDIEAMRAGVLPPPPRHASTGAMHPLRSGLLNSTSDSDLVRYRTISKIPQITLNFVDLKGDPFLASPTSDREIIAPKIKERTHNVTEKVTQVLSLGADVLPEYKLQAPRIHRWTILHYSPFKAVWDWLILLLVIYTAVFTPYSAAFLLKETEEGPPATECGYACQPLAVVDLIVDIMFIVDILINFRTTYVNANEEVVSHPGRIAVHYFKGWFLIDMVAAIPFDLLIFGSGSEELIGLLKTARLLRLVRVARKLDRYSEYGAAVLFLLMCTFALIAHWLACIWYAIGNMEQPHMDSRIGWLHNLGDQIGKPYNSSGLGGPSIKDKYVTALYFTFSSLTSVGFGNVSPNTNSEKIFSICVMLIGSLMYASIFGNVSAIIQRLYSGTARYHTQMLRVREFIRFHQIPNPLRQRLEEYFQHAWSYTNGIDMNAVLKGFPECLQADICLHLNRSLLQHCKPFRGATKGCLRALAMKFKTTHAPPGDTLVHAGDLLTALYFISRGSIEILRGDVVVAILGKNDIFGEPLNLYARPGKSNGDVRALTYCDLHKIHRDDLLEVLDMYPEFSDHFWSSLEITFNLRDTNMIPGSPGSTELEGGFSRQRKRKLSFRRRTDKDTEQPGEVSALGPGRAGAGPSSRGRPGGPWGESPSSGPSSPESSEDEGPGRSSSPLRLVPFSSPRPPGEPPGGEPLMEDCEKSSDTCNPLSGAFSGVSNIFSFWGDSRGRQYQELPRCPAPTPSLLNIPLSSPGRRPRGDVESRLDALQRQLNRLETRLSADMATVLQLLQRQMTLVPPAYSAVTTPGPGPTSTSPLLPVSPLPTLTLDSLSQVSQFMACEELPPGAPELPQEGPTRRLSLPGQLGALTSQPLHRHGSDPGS

| SMILES | hERG current change (%, negative = inhibition) at 1uM [%] |
| --- | --- |
| Cc1cccc(NC(=O)CSCC(=O)N=c2sccn2C)c1 | -5.56 |
| CCOC(=O)/C=c1\s/c(=C\c2ccccc2OC)c(=O)n1CC(=O)N1CCOCC1 | 9.87 |
| CCOC(=O)N1CCN(C(=O)Cn2ncc3ccccc32)CC1 | 9.08 |
| Cc1cc(C)c(C#N)c(SCc2ccccc2F)n1 | 17.9 |
| Cc1ccc(Cl)cc1N1CCN(C(=S)NCCc2ccccc2)CC1 | 11.5 |
| COc1ccccc1CNCC(=O)Nc1ccc(N(C)C)cc1.O=C(O)C(=O)O | 6.69 |
| O=C1CCCC2=C1C(c1ccco1)Nc1ccc(C(=O)c3ccccc3)cc1N2 (centres unmarked) | 5.24 |
| Cn1c(=O)c2[nH]c(N=NNc3ccccc3F)nc2n(C)c1=O | 7.49 |
| Nc1c(-c2ccccc2)cnc2ncnn12 | 4.86 |
| COCC(=O)N1CCC(Oc2ccc(C(=O)N3CCCCC3COC)cc2)CC1 (centres unmarked) | 12.9 |
| COc1ccc([N+](=O)[O-])cc1NC(=O)CSc1nc(C)cc(C)n1 | 9.76 |
| CCCCn1c(N)c(N(CC(C)C)C(=O)c2cccs2)c(=O)[nH]c1=O | 3.79 |
| COc1cc2c(cc1OC)C(COc1ccccc1OC)N(C(=O)C(C)(C)C)CC2 (centres unmarked) | 5.43 |
| Cc1cc(=O)[nH]c(SCC(=O)NN(c2ccccc2)c2ccccc2)n1 | 5.55 |
| Cc1oc(-c2ccc(Cl)cc2)nc1CS(=O)CC(=O)NCc1ccco1 (centres unmarked) | 4.23 |
| O=C(Cn1cc(C(=S)N2CCOCC2)c2ccccc21)N1CCOCC1 | 15.6 |
| Cc1ccccc1-c1nn(-c2ccc(F)cc2F)cc1CNCCCO | 12.2 |
| COc1ccccc1C(=O)NC(=O)COC(=O)CNC(=O)c1ccc(Cl)cc1Cl | 13.4 |
| COC(=O)c1ccccc1Nc1ccnc(Cl)n1 | -6.9 |
| C=CCNC(=S)Nc1ccc(C)c(S(=O)(=O)N2CCCCC2)c1 | 0.161 |
| Cc1cc(C)c2ccc(/C=N/O)nc2c1O | 8.72 |
| Cc1ccc(CC(=O)O/N=C(\N)c2ccccn2)cc1 | 5.66 |
| CCCN1C2CCCC1CC(NC(=O)c1ccccc1)C2 (centres unmarked) | 4.52 |

| SMILES | hERG current change (%, negative = inhibition) at 1uM [%] |
| --- | --- |
| COc1ccc(C2C(C(=O)OCC(=O)NC(C)(C)C)CCC(=O)N2c2ccc(C)cc2)cc1OC (centres unmarked) | 0.459 |
| O=C(Nc1nccs1)c1ccc(N2C(=O)[C@@H]3[C@H](C2=O)[C@H]2C=C[C@@H]3C2)cc1 | 3.74 |
| CC(C)c1ccc(/C=N/NC(=O)CCNC(=O)c2ccccc2)cc1 | -14.3 |
| COc1ccc(OC)c(S(=O)(=O)Nc2cc(OC)c(Cl)cc2OC)c1 | 13.1 |
| Cc1cc(C)n(CC(C)NCc2c(C(=O)N3CCOCC3)nc3c(C)cccn23)n1 (centres unmarked) | 8.88 |
| CCOc1ccc(C2CC(c3ccccc3C)n3ncnc3N2)cc1 (centres unmarked) | 6.88 |
| CC(=O)N1c2ccccc2CCc2ccc([N+](=O)[O-])cc21 | 10.6 |
| O=C1/C(=C/c2cccc(O)c2)SC(=S)N1CC1CCCO1 (centres unmarked) | 13.7 |
| CCCc1nnc(SCC(=O)N2CCCCC2C)n1CCOC (centres unmarked) | 5.73 |
| O=C(O)c1nn(CC(=O)N2CCCCCC2)c(=O)c2ccccc12 | 16 |
| O=c1[nH]c(=O)n(CCC2=CCCCC2)c(O)c1C=NCc1cccnc1 | 9.06 |
| COc1cc(NC(=O)COC(=O)C=C(C)C)c(C)cc1[N+](=O)[O-] | -0.468 |
| NS(=O)(=O)c1ccc(NC(=O)/C=C/c2ccco2)cc1 | 4.45 |
| CCOC(=O)c1ccc(NC(=O)c2c(C)[nH]c(C(=O)OCC)c2C)cc1 | -2.74 |
| OCc1nc(CO)n(Cc2ccccc2)n1 | -0.673 |
| O=C(COC(=O)c1c2c(nc3ccccc13)/C(=C\c1cccs1)CCC2)Nc1ccccc1 | -3.82 |
| O=C(CN1C(=O)c2ccccc2S1(=O)=O)NCCSCc1ccco1 | 6.7 |
| N#Cc1c(N2CCN(C(=O)c3ccco3)CC2)nc(-c2ccccc2)c2c1CCCC2 | 9.26 |
| CCCCCCn1cnc2c(oc3nc4c(cc32)CCCC4)c1=O | 10.5 |
| Cc1c(NC(=O)C2CCCCC2)cc(C(=O)N2CCOCC2)cc1[N+](=O)[O-] | 0.815 |
| CN1CC2([N+](=O)[O-])CC=C(Oc3ccccc3)C([N+](=O)[O-])(C1)C2 (centres unmarked) | 10.6 |
| O=C(CSc1nnc(C2COc3ccccc3O2)o1)N1CCN(c2ccccc2)CC1 (centres unmarked) | 6.45 |
| COc1ccc(NC(=O)CSc2nc3[nH]ncc3c(=O)[nH]2)cc1OC | 13.9 |

| SMILES | hERG current change (%, negative = inhibition) at 1uM [%] |
| --- | --- |
| O=C(c1cc2ccccc2o1)N(Cc1ccco1)Cc1cccs1 | 4.67 |
| COc1ccccc1CCN1CCCC(CN(C)CC(C)(C)CO)C1 (centres unmarked) | 13.6 |
| COCCNC(=S)N/N=C(\C)c1ccc(C)c([N+](=O)[O-])c1 | 7.07 |
| Cn1c(N)c(C(=O)COC(=O)C2CCN(S(=O)(=O)c3cccs3)CC2)c(=O)n(C)c1=O | 1.91 |
| Nc1nnc(Cc2ccc(Cl)cc2)s1 | 1.75 |
| Cc1ccc(Cn2cccc2/C=N/NC(=S)Nc2ccc(C)cc2)cc1 | 6.19 |
| COc1ccc2[nH]c(=O)c(CN(C(=O)c3ccncc3)C(C)(C)C)cc2c1 | 9.31 |
| O=C(Oc1nsnc1N1CCCCC1)N1CCOCC1 | 17.9 |
| O=C(Nc1ccccc1N1CCOCC1)C1(c2ccc(Cl)cc2)CCC1 | 14.7 |
| CC(C)Cc1cc(C(=O)N2N=C(C(F)F)CC2(O)C(F)F)c2ccccc2n1 (centres unmarked) | -1.33 |
| Cc1cccc(-n2nc(C)cc2N)c1 | 13.1 |
| CCCN1CCC(NC(=S)Nc2ccc(OC)c(OC)c2)CC1 | 12.1 |
| NC(=O)C(NC(=O)OCc1ccccc1)c1ccccc1 (centres unmarked) | -0.655 |
| CNC(=O)c1cc(OCC(F)(F)F)ccc1OCC(F)(F)F | 2.06 |
| CCc1cc2c(N[C@@H](Cc3c[nH]c4ccccc34)C(=O)O)ncnc2s1 | 14.5 |
| CCOc1ccc(NC(=O)COC(=O)c2ncc(Cl)c(Cl)c2Cl)cc1 | 10.2 |
| Cc1ccc(NC(=O)c2sc3ncn(CC(=O)N4CCN(c5ccccn5)CC4)c(=O)c3c2C)cc1F | -7.49 |
| CCOC(=O)N/N=C\c1ccc(-c2cc(Cl)ccc2Cl)o1 | 0.0486 |
| CC(C)Sc1nc2[nH]ncc2c(=O)[nH]1 | 6.82 |
| CCOC(=O)C1(C/C(C)=N/NC(N)=O)CC(C)OC1=O (centres unmarked) | 10.5 |
| CCn1cc(C(=O)NCc2ccccn2)c(=O)c2cc(F)c(N3CCN(C)CC3)cc21 | 7.54 |
| Cc1nn(CC(=O)N(C)Cc2ccc(F)cc2)c(C)c1[N+](=O)[O-] | 5.72 |
| COc1ccc(Cl)cc1NC(=O)COC(=O)CCc1cc(OC)c(OC)c(OC)c1 | 11.7 |

| SMILES | hERG current change (%, negative = inhibition) at 1uM [%] |
| --- | --- |
| N#CCCn1cc(C(=O)Nc2ccc(C(=O)O)cc2)c(-c2cccc(Br)c2)n1 | 16.5 |
| CCC(c1nnnn1C(C)(C)CC)N(CCN1CCOCC1)Cc1cc2cc(C)ccc2[nH]c1=O (centres unmarked) | 10.7 |
| Cc1ccc(-c2cc(C(=O)N/N=C\c3cnn(C)c3C)c3ccccc3n2)cc1C | 1.51 |
| CCCCn1c(Nc2ccc(OC)cc2)nc2ccccc21 | 14 |
| O=C(CSc1nnnn1C1CCCC1)c1ccc2c(c1)OCCO2 | 13.8 |
| Cc1cnc(CN(C)C(=O)c2ccc3oc(Cc4ccc(Cl)cc4)nc3c2)[nH]1 | -5.24 |
| Cc1ccc(N(C(=O)c2snc(C(N)=O)c2N)C(C(=O)NCCC(C)C)c2ccco2)cc1 (centres unmarked) | -8.79 |
| CCCCNC(=O)Cc1ccc(C)cc1 | 16.7 |
| O=C(Nc1cccc(Cl)c1)N(CCN1CCOCC1)Cc1ccccc1F | -1.78 |
| N#Cc1nc(-c2ccco2)oc1N1CCN(C(c2ccccc2)c2ccccc2)CC1 | 5.8 |
| O=C(CSc1nnnn1-c1ccccc1)Nc1nsc(-c2ccc(Cl)cc2)n1 | 18.7 |
| O=C(c1ccc(S(=O)(=O)N2CCOCC2)cc1)N(c1cccc(Cl)c1)C1C=CS(=O)(=O)C1 (centres unmarked) | 14.4 |
| CCN(CC(=O)Nc1cc(Cl)ccc1C)C(=O)c1cc([N+](=O)[O-])ccc1N1CCOCC1 | 10.8 |
| CC(C)(C)c1cc(C(=O)NN)n(Cc2ccc(F)cc2)n1 | 1.62 |
| C=CCCN(C1CCCC1)S(=O)(=O)c1ccccc1Br | 15.6 |
| CCCCNC(=S)NCCN1CCCCC1.O=C(O)C(=O)O | 3.72 |
| COc1cccc(CNS(=O)(=O)c2ccc3c(c2)CC(C)N3C(=O)C2CC2)c1 (centres unmarked) | 13 |
| O=S(=O)(Nc1nc(-c2ccccc2)cs1)c1cc(Cl)ccc1Cl | 15.4 |
| CCC(C)C(NC=C1C(=O)OC(C)(C)OC1=O)C(=O)O (centres unmarked) | -0.226 |
| COc1ccc(-n2ccc3ccccc32)cc1 | 11.1 |

From paper PMC4336329 (PLoS ONE, 2015)
